Assay [1] has as its target T1, Flag-FBXL6 (F-Box and Leucine Rich Repeat Protein 6), wild type (UniProt Q8N531).
T1 sequence: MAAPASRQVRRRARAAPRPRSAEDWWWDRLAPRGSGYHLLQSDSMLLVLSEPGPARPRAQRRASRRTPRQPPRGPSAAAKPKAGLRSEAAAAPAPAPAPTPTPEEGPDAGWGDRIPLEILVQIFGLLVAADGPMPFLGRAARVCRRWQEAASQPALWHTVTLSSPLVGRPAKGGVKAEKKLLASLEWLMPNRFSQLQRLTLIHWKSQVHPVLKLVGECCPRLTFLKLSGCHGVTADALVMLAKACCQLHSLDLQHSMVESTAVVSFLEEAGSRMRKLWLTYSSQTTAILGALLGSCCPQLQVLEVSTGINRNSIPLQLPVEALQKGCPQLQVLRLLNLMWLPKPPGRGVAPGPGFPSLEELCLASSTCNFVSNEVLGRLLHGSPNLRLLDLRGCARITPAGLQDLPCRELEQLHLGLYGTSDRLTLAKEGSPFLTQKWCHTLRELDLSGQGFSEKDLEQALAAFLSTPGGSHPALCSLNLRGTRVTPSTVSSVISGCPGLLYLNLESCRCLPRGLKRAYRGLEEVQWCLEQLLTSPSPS
The assay can be described thus: co-IP; Huh7 and Hepa1-6 cells transfected with Flag-FBXL6 for 48 h, lysed; indicated antibodies and Protein A/G PLUS-Agarose added to the lysates.

Amino acid sequences for entries named in this document (tags omitted).
UniProt P20248: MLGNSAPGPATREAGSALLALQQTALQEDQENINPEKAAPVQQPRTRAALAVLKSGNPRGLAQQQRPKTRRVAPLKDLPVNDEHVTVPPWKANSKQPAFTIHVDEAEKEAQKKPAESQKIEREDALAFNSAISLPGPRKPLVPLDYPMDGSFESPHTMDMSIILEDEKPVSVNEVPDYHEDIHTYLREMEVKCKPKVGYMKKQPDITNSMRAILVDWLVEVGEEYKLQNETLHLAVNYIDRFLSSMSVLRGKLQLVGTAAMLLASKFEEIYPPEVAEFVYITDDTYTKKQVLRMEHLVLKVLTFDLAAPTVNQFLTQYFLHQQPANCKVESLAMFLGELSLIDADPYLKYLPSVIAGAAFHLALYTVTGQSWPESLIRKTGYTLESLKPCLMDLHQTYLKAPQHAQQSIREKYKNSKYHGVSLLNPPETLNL

Assay [2] concerns the target T1, Flag-FBXL6 (F-Box and Leucine Rich Repeat Protein 6), wild type. The assay can be described thus: co-IP; wild-type FBXL6 or LRR deletion mutants with TKT in cells (Supplementary Fig. 6d); cells and antibodies not shown.
For a further assay, the target named is T2, FBXL6(ΔLRR383-408) (UniProt Q8N531).
T2 sequence: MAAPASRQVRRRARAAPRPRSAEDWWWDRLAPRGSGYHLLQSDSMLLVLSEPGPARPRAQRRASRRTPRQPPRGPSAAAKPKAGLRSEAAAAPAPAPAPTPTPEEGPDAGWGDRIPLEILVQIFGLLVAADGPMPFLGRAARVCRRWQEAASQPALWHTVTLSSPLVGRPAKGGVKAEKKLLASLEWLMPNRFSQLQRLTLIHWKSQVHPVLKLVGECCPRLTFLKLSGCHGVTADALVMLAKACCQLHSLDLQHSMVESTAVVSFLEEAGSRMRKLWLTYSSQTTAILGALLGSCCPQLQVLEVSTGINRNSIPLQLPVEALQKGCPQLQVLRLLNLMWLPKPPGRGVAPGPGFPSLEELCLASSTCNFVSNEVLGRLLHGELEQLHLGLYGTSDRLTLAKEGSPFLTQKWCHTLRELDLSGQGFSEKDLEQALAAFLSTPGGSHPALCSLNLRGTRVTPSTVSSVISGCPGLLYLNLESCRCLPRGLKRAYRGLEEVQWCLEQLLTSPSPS
The description is as above.

Another assay has as its target T3, FBXL6(ΔLRR219-244) (UniProt Q8N531).
T3 sequence: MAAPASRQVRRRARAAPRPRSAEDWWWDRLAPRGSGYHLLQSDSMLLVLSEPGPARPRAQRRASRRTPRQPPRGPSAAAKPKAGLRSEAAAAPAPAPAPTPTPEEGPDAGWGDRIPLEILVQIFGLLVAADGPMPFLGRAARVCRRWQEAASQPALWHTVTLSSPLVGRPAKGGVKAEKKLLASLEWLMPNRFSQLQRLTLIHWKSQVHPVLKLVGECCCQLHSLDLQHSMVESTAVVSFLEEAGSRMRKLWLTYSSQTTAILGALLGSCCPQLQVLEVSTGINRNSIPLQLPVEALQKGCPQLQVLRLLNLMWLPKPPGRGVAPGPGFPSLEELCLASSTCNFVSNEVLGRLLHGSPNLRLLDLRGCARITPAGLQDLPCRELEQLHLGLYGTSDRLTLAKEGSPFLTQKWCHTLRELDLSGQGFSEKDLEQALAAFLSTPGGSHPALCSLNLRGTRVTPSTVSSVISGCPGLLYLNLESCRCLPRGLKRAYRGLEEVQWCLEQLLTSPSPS
The description is as above.

Assay [3] concerns the target T1, Flag-FBXL6 (F-Box and Leucine Rich Repeat Protein 6), wild type. The assay can be described thus: co-IP; Huh7 cells cotransfected with FBXL6 and TKT or TKT T287A for 48 h; pulldown with anti-Flag IgG.
Assay [4] shares this target. As to the kind of experiment: co-IP; Huh7 and Hepa1-6 cells transfected with Flag-FBXL6 for 48 h, lysed; indicated antibodies and Protein A/G PLUS-Agarose added to the lysates. The source holds these as a separate data set.

Results are given in words; binding and its absence hold for the method and conditions named. Binding seen in cells or lysates may run through a third protein. Some binding calls cover weakened binding; strength is not graded here. For some of these results: Sequences can lack the tags named with a protein.

Consider CCNA2 (from UniProt P20248 1-432), for which, in assay [1], the binding entry is recorded as “binds weakly”.

B1: TKT (transketolase) in the co-IP with the FBXL6 LRR deletion mutants (Supplementary Fig. 6d) (protein, UniProt P29401 1-623)
chain: MESYHKPDQQKLQALKDTANRLRISSIQATTAAGSGHPTSCCSAAEIMAVLFFHTMRYKSQDPRNPHNDRFVLSKGHAAPILYAVWAEAGFLAEAELLNLRKISSDLDGHPVPKQAFTDVATGSLGQGLGAACGMAYTGKYFDKASYRVYCLLGDGELSEGSVWEAMAFASIYKLDNLVAILDINRLGQSDPAPLQHQMDIYQKRCEAFGWHAIIVDGHSVEELCKAFGQAKHQPTAIIAKTFKGRGITGVEDKESWHGKPLPKNMAEQIIQEIYSQIQSKKKILATPPQEDAPSVDIANIRMPSLPSYKVGDKIATRKAYGQALAKLGHASDRIIALDGDTKNSTFSEIFKKEHPDRFIECYIAEQNMVSIAVGCATRNRTVPFCSTFAAFFTRAFDQIRMAAISESNINLCGSHCGVSIGEDGPSQMALEDLAMFRSVPTSTVFYPSDGVATEKAVELAANTKGICFIRTSRPENAIIYNNNEDFQVGQAKVVLKSKDDQVTVIGAGVTLHEALAAAELLKKEKINIRVLDPFTIKPLDRKLILDSARATKGRILTVEDHYYEGGIGEAVSSAVVGEPGITVTHLAVNRVPRSGKPAELLKMFGIDRDAIAQAVRGLITKA
As for B1, the binding entry (in assay [2]; in the assay with FBXL6(ΔLRR383-408); with FBXL6(ΔLRR219-244)) was “binds” throughout.

B2: TKT T287A mutant, transfected into Huh7 cells (protein, UniProt P29401 1-623)
chain: MESYHKPDQQKLQALKDTANRLRISSIQATTAAGSGHPTSCCSAAEIMAVLFFHTMRYKSQDPRNPHNDRFVLSKGHAAPILYAVWAEAGFLAEAELLNLRKISSDLDGHPVPKQAFTDVATGSLGQGLGAACGMAYTGKYFDKASYRVYCLLGDGELSEGSVWEAMAFASIYKLDNLVAILDINRLGQSDPAPLQHQMDIYQKRCEAFGWHAIIVDGHSVEELCKAFGQAKHQPTAIIAKTFKGRGITGVEDKESWHGKPLPKNMAEQIIQEIYSQIQSKKKILAAPPQEDAPSVDIANIRMPSLPSYKVGDKIATRKAYGQALAKLGHASDRIIALDGDTKNSTFSEIFKKEHPDRFIECYIAEQNMVSIAVGCATRNRTVPFCSTFAAFFTRAFDQIRMAAISESNINLCGSHCGVSIGEDGPSQMALEDLAMFRSVPTSTVFYPSDGVATEKAVELAANTKGICFIRTSRPENAIIYNNNEDFQVGQAKVVLKSKDDQVTVIGAGVTLHEALAAAELLKKEKINIRVLDPFTIKPLDRKLILDSARATKGRILTVEDHYYEGGIGEAVSSAVVGEPGITVTHLAVNRVPRSGKPAELLKMFGIDRDAIAQAVRGLITKA
Regarding B2, the binding entry in assay [3] was “no binding”.

B3: wild-type TKT (transketolase), transfected into Huh7 cells (protein, UniProt P29401 1-623)
chain: MESYHKPDQQKLQALKDTANRLRISSIQATTAAGSGHPTSCCSAAEIMAVLFFHTMRYKSQDPRNPHNDRFVLSKGHAAPILYAVWAEAGFLAEAELLNLRKISSDLDGHPVPKQAFTDVATGSLGQGLGAACGMAYTGKYFDKASYRVYCLLGDGELSEGSVWEAMAFASIYKLDNLVAILDINRLGQSDPAPLQHQMDIYQKRCEAFGWHAIIVDGHSVEELCKAFGQAKHQPTAIIAKTFKGRGITGVEDKESWHGKPLPKNMAEQIIQEIYSQIQSKKKILATPPQEDAPSVDIANIRMPSLPSYKVGDKIATRKAYGQALAKLGHASDRIIALDGDTKNSTFSEIFKKEHPDRFIECYIAEQNMVSIAVGCATRNRTVPFCSTFAAFFTRAFDQIRMAAISESNINLCGSHCGVSIGEDGPSQMALEDLAMFRSVPTSTVFYPSDGVATEKAVELAANTKGICFIRTSRPENAIIYNNNEDFQVGQAKVVLKSKDDQVTVIGAGVTLHEALAAAELLKKEKINIRVLDPFTIKPLDRKLILDSARATKGRILTVEDHYYEGGIGEAVSSAVVGEPGITVTHLAVNRVPRSGKPAELLKMFGIDRDAIAQAVRGLITKA
With B3, in assay [3], the binding result is reported as “binds”.

B4: endogenous TKT (transketolase) of human Huh7 cells (protein, UniProt P29401 1-623)
chain: MESYHKPDQQKLQALKDTANRLRISSIQATTAAGSGHPTSCCSAAEIMAVLFFHTMRYKSQDPRNPHNDRFVLSKGHAAPILYAVWAEAGFLAEAELLNLRKISSDLDGHPVPKQAFTDVATGSLGQGLGAACGMAYTGKYFDKASYRVYCLLGDGELSEGSVWEAMAFASIYKLDNLVAILDINRLGQSDPAPLQHQMDIYQKRCEAFGWHAIIVDGHSVEELCKAFGQAKHQPTAIIAKTFKGRGITGVEDKESWHGKPLPKNMAEQIIQEIYSQIQSKKKILATPPQEDAPSVDIANIRMPSLPSYKVGDKIATRKAYGQALAKLGHASDRIIALDGDTKNSTFSEIFKKEHPDRFIECYIAEQNMVSIAVGCATRNRTVPFCSTFAAFFTRAFDQIRMAAISESNINLCGSHCGVSIGEDGPSQMALEDLAMFRSVPTSTVFYPSDGVATEKAVELAANTKGICFIRTSRPENAIIYNNNEDFQVGQAKVVLKSKDDQVTVIGAGVTLHEALAAAELLKKEKINIRVLDPFTIKPLDRKLILDSARATKGRILTVEDHYYEGGIGEAVSSAVVGEPGITVTHLAVNRVPRSGKPAELLKMFGIDRDAIAQAVRGLITKA
Take B4: the binding entry in assay [4] is “binds”.

For the origin of these results see publication PMC10618235.
